About 220 (0.56%) of roughly 39,000 compounds showed activity. This is one part of the list.
The compounds below were run on Escherichia coli K-12 BW25113 (assay: relative growth (OD600 normalised to plate interquartile mean) (fraction); higher = less growth inhibition, active = 0.2 or less). Settings: 50 µM; LB; incubation time: overnight (16-24 h).
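Further: static incubation at 37 °C against the wild-type strain, values averaged over two biological replicates.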

| Compound | relative growth |
| --- | --- |
| CN(C)c1cc(NC(=O)CNC(C)(C)C)c(O)c2c1CC1CC3C(N(C)C)C(O)=C(C(N)=O)C(=O)C3(O)C(O)=C1C2=O (stereo not given) | inactive: 1.06 |
| Cc1noc(C)c1S(=O)(=O)N(C)C[C@@H]1Oc2ccc(NC(=O)CCN3CCOCC3)cc2C(=O)N([C@H](C)CO)C[C@@H]1C | inactive: 1.04 |
| Cc1noc(C)c1NC(=O)Nc1ccc2c(c1)CC(=O)N([C@H](C)CO)C[C@H](C)[C@H](CN(C)Cc1ccc(Cl)c(Cl)c1)O2 | inactive: 0.93 |
| O=[N+]([O-])c1ccc(/C=C/CN(C/C=C/c2ccc([N+](=O)[O-])cc2)CCCNS(=O)(=O)c2cccc3cnccc23)cc1 | inactive: 1.02 |
| CCCC(=O)Nc1ccc2c(c1)OC[C@H](C)N(Cc1ccc(-c3ccccn3)cc1)C[C@H](C)[C@@H](OC)CN(C)C2=O | inactive: 0.981 |
| C[C@@H]1CN([C@@H](C)CO)C(=O)c2cc(/C=C/c3ccccc3)cnc2O[C@H]1CN(C)S(=O)(=O)c1cn(C)cn1 | inactive: 0.979 |
| Oc1cc(O)c2c(c1)OC(c1ccc(O)c(O)c1)C(O)C2 (stereo not given) [CIANIDANOL [+-catechin]] | inactive: 0.987 |
| COc1ccc(NC(=O)N(C)C[C@H]2Oc3ccc(NS(=O)(=O)c4cn(C)cn4)cc3C(=O)N([C@H](C)CO)C[C@@H]2C)cc1 | inactive: 0.988 |
| Nc1ccc(CCNc2ncnc3c2ncn3[C@@H]2O[C@H](CO)[C@@H](O)[C@H]2O)cc1 | inactive: 0.986 |
| C[C@@H]1CN([C@H](C)CO)C(=O)c2cc(NS(=O)(=O)c3ccc(Cl)cc3)ccc2O[C@@H](C)CCCCO[C@H]1CN(C)C(=O)Nc1ccccc1 | inactive: 1.02 |
| C[C@H](CO)N1C[C@H](C)[C@H](CN(C)S(=O)(=O)c2ccc(F)cc2)Oc2c(NC(=O)c3cnccn3)cccc2C1=O | inactive: 1.01 |
| C[C@@H]1CCCCO[C@@H](CN(C)C(=O)Nc2ccc(C(F)(F)F)cc2)[C@@H](C)CN([C@H](C)CO)C(=O)c2cc(NC(=O)c3ccncc3)ccc2O1 | inactive: 0.953 |
| C[C@@H]1CN([C@@H](C)CO)C(=O)c2cccc(NC(=O)NC3CCCCC3)c2O[C@@H]1CN(C)Cc1ccc(Oc2ccccc2)cc1 | inactive: 1.01 |
| Nc1nnnn1CC(=O)OCC(=O)Nc1ccccc1 | inactive: 0.996 |
| O=C(C1=C[C@@H](c2ccc(Br)cc2)C[C@@H](OCc2ccc(CO)cc2)O1)N1CCN(Cc2ccccc2)CC1 | inactive: 1.01 |
| C[C@H](CO)N1C[C@H](C)[C@@H](CN(C)Cc2ccc(C(=O)Nc3ccccc3N)cc2)OCc2cn(nn2)CCCC1=O | inactive: 0.976 |
| CC(C)CC#Cc1ccc2c(c1)O[C@H](CN(C)C(=O)C1CCOCC1)[C@H](C)CN([C@H](C)CO)S2(=O)=O | inactive: 0.973 |
| C[C@H]1CN([C@@H](C)CO)C(=O)CCCn2cc(nn2)CO[C@H]1CN(C)S(=O)(=O)c1ccc(Oc2ccccc2)nc1 | inactive: 0.991 |
| COc1ccc(C)c2c1CCCC2=O | inactive: 1.02 |
| NC(=O)Nc1ccc(C(=O)O)cc1 | inactive: 1.01 |

| Compound | relative growth |
| --- | --- |
| COc1ccc(NC(=O)N(C)C[C@@H]2OCCCC[C@@H](C)Oc3ccc(NS(=O)(=O)c4ccc(Cl)cc4)cc3C(=O)N([C@H](C)CO)C[C@@H]2C)cc1 | inactive: 0.987 |
| Cc1ccc(S(=O)(=O)N(C)C[C@H]2Oc3ccc(NC(=O)Nc4ccc(C(F)(F)F)cc4)cc3CC(=O)N([C@H](C)CO)C[C@@H]2C)cc1 | inactive: 1.01 |
| Cc1noc(C)c1NC(=O)N(C)C[C@H]1Oc2cc(C#CCN(C)C)ccc2S(=O)(=O)N([C@@H](C)CO)C[C@H]1C | inactive: 0.964 |
| O=C(O)CNC(=O)c1ccccc1 | inactive: 1.02 |
| CC(=O)OC1CC2(C)C(CC(O)C3C4(C)CCC(O)C(C)C4CCC32C)C1=C(CCC=C(C)C)C(=O)O (stereo not given) | inactive: 1.13 |
| C[C@@H]1CN([C@H](C)CO)C(=O)c2cc(NS(=O)(=O)c3ccccc3)ccc2O[C@@H](C)CCCCO[C@@H]1CN(C)Cc1ccccc1 | inactive: 1.04 |
| C[C@H]1CCCCO[C@H](CN(C)C(=O)Nc2ccc(C(F)(F)F)cc2)[C@@H](C)CN([C@@H](C)CO)C(=O)c2cc(NS(=O)(=O)c3cn(C)cn3)ccc2O1 | inactive: 0.891 |
| C[C@H](CO)N1C[C@H](C)[C@H](CN(C)Cc2ccc(Oc3ccccc3)cc2)Oc2ccc(NC(=O)Cc3cn(C)c4ccccc34)cc2CC1=O | inactive: 0.975 |
| C[C@H]1CN([C@@H](C)CO)C(=O)CCCn2cc(nn2)CO[C@H]1CN(C)S(=O)(=O)c1ccc(Oc2ccccc2)cc1 | inactive: 0.994 |
| Cc1cc2c(cc1C)N=C(C(F)(F)F)CC(c1cccs1)=N2 | inactive: 1.01 |
| COc1ccc(S(=O)(=O)Nc2ccc3c(c2)C(=O)N([C@H](C)CO)C[C@@H](C)[C@@H](CN(C)C(=O)Nc2c(C)noc2C)OCCCC[C@@H](C)O3)cc1 | inactive: 1 |
| Cc1noc(C)c1NC(=O)N(C)C[C@H]1OCCCC[C@H](C)Oc2ccc(NS(=O)(=O)c3ccc(F)cc3)cc2C(=O)N([C@@H](C)CO)C[C@@H]1C | inactive: 0.991 |
| C[C@H](CO)N1C[C@H](C)[C@H](CN(C)Cc2ccc(C(F)(F)F)cc2)OCCCC[C@H](C)Oc2ccc(N(C)C)cc2C1=O | inactive: 0.999 |
| C[C@@H]1CN([C@@H](C)CO)C(=O)c2cc(C#CC3(O)CCCC3)cnc2O[C@@H]1CN(C)S(=O)(=O)c1ccccc1 | inactive: 0.996 |
| COc1ccc(NC(=O)Nc2ccc3c(c2)CC(=O)N([C@H](C)CO)C[C@H](C)[C@H](CN(C)Cc2ccc(Oc4ccccc4)cc2)O3)cc1 | inactive: 1.01 |
| COCC(=O)N1C[C@H](C)[C@H](OC)CN(C)C(=O)c2ccc(NC(=O)Nc3cccc(F)c3)cc2OC[C@@H]1C | inactive: 0.995 |
| C[C@H](O)C#Cc1ccc2c(c1)O[C@H](CN(C)C(=O)C1CCCCC1)[C@H](C)CN([C@@H](C)CO)S2(=O)=O | inactive: 1 |
| C[C@@H]1CN([C@H](C)CO)C(=O)c2cc(NC(=O)CCN3CCOCC3)ccc2O[C@H]1CN(C)C(=O)NC1CCCCC1 | inactive: 1.02 |
| C=C1CCC(=O)C(C)CCC2C1CC2(C)C (stereo not given) | inactive: 0.92 |
| C[C@@H]1CN([C@H](C)CO)C(=O)c2cc(N(C)C)ccc2O[C@@H](C)CCCCO[C@@H]1CN(C)Cc1ccc(C(F)(F)F)cc1 | inactive: 0.979 |

| Compound | relative growth |
| --- | --- |
| C[C@@H]1CN([C@@H](C)CO)C(=O)Cc2cc(NC(=O)NC3CCCCC3)ccc2O[C@H]1CN(C)Cc1ccc(C(F)(F)F)cc1 | inactive: 1.02 |
| Cc1noc(C)c1S(=O)(=O)Nc1ccc2c(c1)CC(=O)N([C@H](C)CO)C[C@H](C)[C@H](CN(C)C(=O)Nc1ccccc1)O2 | inactive: 0.975 |
| Cc1cc2c(cc1C(=O)c1ccc(C(=O)O)cc1)C(C)(C)CCC2(C)C | inactive: 1.04 |
| O=C1N[C@H](Cc2c[nH]c3ccccc23)COC(=O)[C@@H](Cc2ccc(F)cc2)CCC=CC[C@@H]1CC(=O)N(CCO)Cc1ccccc1 | inactive: 0.995 |
| CCCCCCCCCCC[C@@H](N=O)c1cc(C)ccc1O | inactive: 0.963 |
| OCC(O)C(O)C(O)CO (stereo not given) | inactive: 0.888 |
| C[C@@H]1CN([C@@H](C)CO)C(=O)c2cc(NC(=O)Nc3ccc4c(c3)OCO4)ccc2O[C@@H](C)CCCCO[C@H]1CN(C)S(=O)(=O)c1ccccc1 | inactive: 1.01 |
| O=Cc1ccccc1OC1OC(CO)C(O)C(O)C1O (stereo not given) | inactive: 1.07 |
| C[C@@H]1CN([C@@H](C)CO)C(=O)c2cc(NS(=O)(=O)c3cn(C)cn3)ccc2O[C@H]1CN(C)C(=O)Nc1ccccc1 | inactive: 1 |
| O=C(C[C@H]1CC[C@H]2[C@@H](COC[C@@H](O)CN2S(=O)(=O)c2cccc(F)c2)O1)NCc1ccncn1 | inactive: 1.01 |
| C[C@H](CO)N1C[C@H](C)[C@H](CN(C)Cc2ccccc2F)Oc2cc(C#CCN(C)C)ccc2S1(=O)=O | inactive: 1.01 |
| C[C@@H]1CN([C@@H](C)CO)C(=O)CCCn2nncc2CO[C@H]1CN(C)C(=O)c1cc(-c2ccccc2)on1 | inactive: 0.989 |
| C[C@@H]1CN([C@H](C)CO)C(=O)c2cccc(NC(=O)c3nc4ccccc4s3)c2O[C@@H]1CN(C)C(=O)Nc1ccc(C(F)(F)F)cc1 | inactive: 0.96 |
| C[C@@H]1CN([C@@H](C)CO)S(=O)(=O)c2ccc(-c3cncnc3)cc2O[C@H]1CN(C)C(=O)Cc1ccncc1 | inactive: 1.01 |
| O=C(C[C@H]1C[C@H]2c3cc(NC(=O)NC4CCCC4)ccc3O[C@H]2[C@H](CO)O1)NCc1ccc2c(c1)OCO2 | inactive: 1.02 |
| C[C@@H]1CCCCO[C@H](CN(C)Cc2ccccc2)[C@H](C)CN([C@H](C)CO)C(=O)c2cc(NC(=O)Cc3ccccc3)ccc2O1 | inactive: 0.989 |
| CNC(CC(C)C)C(=O)NC1C(=O)NC(CC(N)=O)C(=O)NC2C(=O)NC3C(=O)NC(C(=O)NC(C(=O)O)c4cc(O)cc(O)c4-c4cc3ccc4O)C(O)c3ccc(c(Cl)c3)Oc3cc2cc(c3OC2OC(CO)C(O)C(O)C2OC2CC(C)(N)C(O)C(C)O2)Oc2ccc(cc2Cl)C1O.Cl (stereo not given) | inactive: 1 |
| COc1ccc(CN(C)C[C@H]2Oc3ccc(NS(=O)(=O)c4c(C)noc4C)cc3CC(=O)N([C@H](C)CO)C[C@@H]2C)cc1 | inactive: 0.961 |
| CCCc1cc(C)[nH]c(=O)c1CNC(=O)c1cc(-c2ccc(N3CCN(C(C)C)CC3)nc2)cc2c1cnn2C(C)C | inactive: 1.09 |
| CC(C)NC(=O)N(C)C[C@@H]1Oc2ccc(NC(=O)Cc3ccccc3)cc2CC(=O)N([C@@H](C)CO)C[C@H]1C | inactive: 1 |
